Reference: publication PMC5892938
The other results are listed elsewhere or left out. At the low end of the ranking the order means little.
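Further: DESeq read counts versus GST-SBP nonspecific binding control pulldown.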

Each sequence was assayed against GST-SBP-SLBP (stem-loop binding protein) (UniProt Q14493) (assay: targeted RNA Bind-n-Seq). Settings: RBNS binding buffer: 25 mM Tris pH 7.5, 150 mM KCl, 3 mM MgCl2, 0.1% Tween, 0.5 mg/mL BSA, 1 mM DTT; 27 nM protein, 750 pM RNA pool; temperature not stated; high values mean tight binding.
For “GGUCACGUCUCAAUCAACUCUAUCUCAGGAGUUUACUCCUGCAUUCUCAACAGCUCGCAGUCAAG”, the binding signal (log2 fold change) was 0.0673.
“GGUCACGUCUCAAUCAACUCAUCUUCAGGAGUUUACUCCUGCAAUCUCAACAGCUCGCAGUCAAG” showed a binding signal (log2 fold change) of 0.128.
With “GGUCACGUCUCAAUCAACUCAUCCGCAGGAGUUUACUCCUGGAAUUUCAACAGCUCGCAGUCAAG” the binding signal (log2 fold change) was -0.0448.
In the case of “GGUCACGUCUCAAUCAACUCAAUCUCAGGAGUUUACUCCUGUAUUUUCAACAGCUCGCAGUCAAG”, the binding signal (log2 fold change) is reported as 0.249.
In the case of “GGUCACGUCUCAAUCAACUCAAUUCCCAGGGAAAACCCUGGUUUUUUCAACAGCUCGCAGUCAAG”, the binding signal (log2 fold change) is reported as -0.143.
Work on “GGUCACGUCUCAAUCAACUCAAGUCCCAGGGAAAUCCCUGGCAUAUUCAACAGCUCGCAGUCAAG” yielded a binding signal (log2 fold change) of -0.126.
Sequence “GGUCACGUCUCAAUCAACUCUUUUUCCAGGGAAAUCCCUGGUAAUUUCAACAGCUCGCAGUCAAG” has a binding signal (log2 fold change) of 0.214.
In the case of “GGUCACGUCUCAAUCAACUCUACUCCAGGAGUUUACUCCUGCAAAUUCAACAGCUCGCAGUCAAG”, the binding signal (log2 fold change) is reported as -0.0281.
In the case of “GGUCACGUCUCAAUCAACUCAUUCCCCAGGGAAAACCCUGGUAAUUUCAACAGCUCGCAGUCAAG”, the binding signal (log2 fold change) is reported as 0.0294.
In the case of “GGUCACGUCUCAAUCAACUCUAUCCCAGGAGUUUACUCCUGUAUAUUCAACAGCUCGCAGUCAAG”, the binding signal (log2 fold change) is reported as 0.162.
In the case of “GGUCACGUCUCAAUCAACUCAUUCUCCAGGGAAAGCCCUGGCAUUCUCAACAGCUCGCAGUCAAG”, the binding signal (log2 fold change) is reported as -0.15.
“GGUCACGUCUCAAUCAACUCAACUUCCAGGGAAAGCCCUGGUAAACUCAACAGCUCGCAGUCAAG” was tested, and the binding signal (log2 fold change) was -0.0505.
For “GGUCACGUCUCAAUCAACUCUUCUCCAGGAGUUUCCUCCUGCUUAUUCAACAGCUCGCAGUCAAG”, the binding signal (log2 fold change) was -0.0141.
With “GGUCACGUCUCAAUCAACUCUACUUCCAGGGAAAACCCUGGCAUUUUCAACAGCUCGCAGUCAAG” the binding signal (log2 fold change) was -0.0301.
For “GGUCACGUCUCAAUCAACUCAUCUUCAGGAGUUUACUCCUGCUUACUCAACAGCUCGCAGUCAAG”, the binding signal (log2 fold change) was -0.133.
With “GGUCACGUCUCAAUCAACUCAAGUCCAGGAGUUUUCUCCUGUUUAUUCAACAGCUCGCAGUCAAG” the binding signal (log2 fold change) was 0.000656.
Work on “GGUCACGUCUCAAUCAACUCCUCAGAGGGGGGGAAAACCCCUUUGCCCUCACAAUCAACAGCUCGCAGUCAAG” yielded a binding signal (log2 fold change) of -0.188.
“GGUCACGUCUCAAUCAACUCAUCCCCCAGGGAAAUCCCUGGUAUAUUCAACAGCUCGCAGUCAAG” showed a binding signal (log2 fold change) of -0.138.
In the case of “GGUCACGUCUCAAUCAACUCUUUCCCCAGGGAAAGCCCUGGUUUAUUCAACAGCUCGCAGUCAAG”, the binding signal (log2 fold change) is reported as 0.27.
With “GGUCACGUCUCAAUCAACUCUUUAGAGGGGGGGAAAACCCCUUUGCCCUCCAUUUCAACAGCUCGCAGUCAAG” the binding signal (log2 fold change) was -0.134.
Sequence “GGUCACGUCUCAAUCAACUCAUCCGAGGGGGGGAAAACCCCUUUACCCUCAUAAUCAACAGCUCGCAGUCAAG” has a binding signal (log2 fold change) of 0.262.
“GGUCACGUCUCAAUCAACUCAAGUCCAGGAGUUUUCUCCUGCAAUGUCAACAGCUCGCAGUCAAG” showed a binding signal (log2 fold change) of 0.183.
Sequence “GGUCACGUCUCAAUCAACUCCUCAGAGGGGGGGAAAACCCCUUUACCCUCAUCUUCAACAGCUCGCAGUCAAG” has a binding signal (log2 fold change) of 0.19.
“GGUCACGUCUCAAUCAACUCAUUUUCAGGAGUUUACUCCUGCUUACUCAACAGCUCGCAGUCAAG” gave a binding signal (log2 fold change) of -0.189.
“GGUCACGUCUCAAUCAACUCUCAAGAGGGGGGGAAAACCCCUUUACCCUCCAAAUCAACAGCUCGCAGUCAAG” gave a binding signal (log2 fold change) of -0.129.
In the case of “GGUCACGUCUCAAUCAACUCUAUCCCCAGGGAAAACCCUGGCUUUCUCAACAGCUCGCAGUCAAG”, the binding signal (log2 fold change) is reported as -0.247.
For “GGUCACGUCUCAAUCAACUCAUACGAGGGGGGGAAAACCCCUUUACCCUCAUAAUCAACAGCUCGCAGUCAAG”, the binding signal (log2 fold change) was -0.061.
For “GGUCACGUCUCAAUCAACUCAUCUUCAGGAGUUUGCUCCUGUUAUUUCAACAGCUCGCAGUCAAG”, the binding signal (log2 fold change) was -0.0236.
“GGUCACGUCUCAAUCAACUCAAUUCCCAGGGAAAUCCCUGGUUUACUCAACAGCUCGCAGUCAAG” showed a binding signal (log2 fold change) of 0.242.
“GGUCACGUCUCAAUCAACUCUUCCCCCAGGGAAACCCCUGGUAAUCUCAACAGCUCGCAGUCAAG” was tested, and the binding signal (log2 fold change) was 0.19.
“GGUCACGUCUCAAUCAACUCUCUCGAGGGGGGGAAAACCCCUUUACCCUCUUCAUCAACAGCUCGCAGUCAAG” showed a binding signal (log2 fold change) of 0.298.
“GGUCACGUCUCAAUCAACUCCCUAGAGGGGGGGAAAACCCCUUUGCCCUCAACUUCAACAGCUCGCAGUCAAG” gave a binding signal (log2 fold change) of -0.406.
“GGUCACGUCUCAAUCAACUCAAUCUCAGGAGUUUUCUCCUGUUAACUCAACAGCUCGCAGUCAAG” showed a binding signal (log2 fold change) of 0.146.
“GGUCACGUCUCAAUCAACUCAGUUUCAGGAGUUUACUCCUGUUUUUUCAACAGCUCGCAGUCAAG” showed a binding signal (log2 fold change) of -0.0741.
“GGUCACGUCUCAAUCAACUCAAUUUCCAGGGAAAACCCUGGCGUUUUCAACAGCUCGCAGUCAAG” showed a binding signal (log2 fold change) of -0.177.
“GGUCACGUCUCAAUCAACUCAAUAGAGGGGGGGAAAACCCCUUUGCCCUCAUUAUCAACAGCUCGCAGUCAAG” was tested, and the binding signal (log2 fold change) was -0.217.
Work on “GGUCACGUCUCAAUCAACUCUAUCCCCAGGGAAAGCCCUGGUUAACUCAACAGCUCGCAGUCAAG” yielded a binding signal (log2 fold change) of -0.158.
